To fix the notation:
B1: chr3:98799072:98799370:-|3pUTR|ENSG00000057019|msi1|FALSE|unique (ssRNA)
RNA: GGGAGUUCUACAGUCCGACGAUCCAAAGCAUCGUUUUAAAGCACAUGGCCUUUUUUUUUUAAUUAUUAGUGGUAGUAAUAUAUAGAAUGUAUUACAUAACUGUCACUGAAGUGGUUGGGGAAAAUGUGGUGACUGAGGUACAGCAACAGAGGAUUGAGCAUCA
B2: chr7:149103614:149105566:-|CDS|ENSG00000204947|control|control|control (ssRNA)
RNA: GGGAGUUCUACAGUCCGACGAUCGAGACCCCAGGGCGCUUAGAAAUUCCCACAGGGCCAAGAUGCUAUUCCUGCUAUGUCUGUAGGAAAGUCUUCCAAGUAAGGAGGGAUUUGCUAAAGCACAAACGGAGCCACUCCAAGAGCCAACAGAGGAUUGAGCAUCA
B3: chr16:46798953:46799054:-|3pUTR|ENSG00000155330|unk|FALSE|unique (ssRNA)
RNA: GGGAGUUCUACAGUCCGACGAUCUCUAUAUUUUUUUCUUUGCCUUAUUGCACUGGUUGGGACUUUUUGCCUUGAUCCAGUUGUAGGGGGGAAACAUUCAGUCAUUAAGCAUUAAAUAACUUUGUUGUUGUUGUGGGCUUGAAACAACAGAGGAUUGAGCAUCA
B4: chr12:52430540:52430705:-|CDS|ENSG00000170454|control|control|control (ssRNA)
RNA: GGGAGUUCUACAGUCCGACGAUCCAGGUCGGUGACACAUCCGUGGUGCUGUCCAUGGACAACAACCGCAACCUGGACCUGGAUAGUAUCAUCGCCGAGGUCAAAGCACAAUACGAGGACAUUGCCAACCGCAGCCGGGCCGAGCAACAGAGGAUUGAGCAUCA
B5: chr22:31279490:31279591:+|3pUTR|ENSG00000182541|msi1|FALSE|unique (ssRNA)
RNA: GGGAGUUCUACAGUCCGACGAUCAGCAGCUUGGGCUGGGAAGAGGUGGUGGCAGAGUCUCAAAGCUGAGAUGCUGAGAGAGAUAGCUCCCUGAGCUGGGCCAUCUGACUUCUACCUCCCAUGUUUGCUCUCCCAACUCAUUAGCAACAGAGGAUUGAGCAUCA
B6: chr7:158734047:158734148:-|3pUTR|ENSG00000117868|msi1_unk|FALSE|overlapping (ssRNA)
RNA: GGGAGUUCUACAGUCCGACGAUCCUACCCGGAACACACCCUCUCACAGACGUACCAAUGUUAUUUUUAUAAUUUCAUGGAUUUAGUUAUACAUACCUUAAUAGUUUUAUAAAAUUGUUGACAUUUCAGGCAAAUUUGGCCAAUCAACAGAGGAUUGAGCAUCA
B7: chr3:133826890:133826991:-|3pUTR|ENSG00000154917|unk|total|mutant (ssRNA)
RNA: GGGAGUUCUACAGUCCGACGAUCUUUGAACGUGUUUCAGAUGUCAUGUGUUCCGUUUUUAUAUGUGUGUACAUAAUUAUAUACCGAGACCGACUUGUGUAUACACCUUCCACAAACACAUCCUCACGGAGAUACAUGUGCUCACAACAGAGGAUUGAGCAUCA
B8: chr9:15474029:15474130:-|CDS|ENSG00000164985|unk|total|mutant (ssRNA)
RNA: GGGAGUUCUACAGUCCGACGAUCAAGAAAAGAGCCGGAUAAAAAAGAGGGGAAGAAAGAAGUUGAAUCAAAAAGGAAAAAUUCCGCUAAAACAGGGGUUACUUCAACCUCCGAUUCUGAAGAAGAAGGAGAUGAUCAAGAAGGCAACAGAGGAUUGAGCAUCA
B9: chr10:15513953:15517157:-|three_prime_utr|ENSG00000077943|control|control|control (ssRNA)
RNA: GGGAGUUCUACAGUCCGACGAUCUAAGUUGCAGUCCAGAUCAAUCCAGCAUAAGUUGCAGAGAUGAAAUGUCUGAAUCACUAUAGAAUUUACAAGGUGAACUAAGGUGAAAUGACUGAUUUACUAUAGAACUUAGAACUAAGACAACAGAGGAUUGAGCAUCA
B10: chr3:179334110:179334217:+|CDS|ENSG00000121864|unk|total|mutant (ssRNA)
RNA: GGGAGUUCUACAGUCCGACGAUCACAUACAAAAAUUUUUCCUCAUGUUUGUGAUGACUGUGGGAAAGGCUUUUCAAGUAUGCCCGAAUAUUGCAAGCAUUUAAAUUCACAUUUAUCUGAAGGGAUUUAUUUAUGUCAAUAUUGCAACAGAGGAUUGAGCAUCA
B11: chr1:51919672:51919773:-|3pUTR|ENSG00000169213|unk|FALSE|unique (ssRNA)
RNA: GGGAGUUCUACAGUCCGACGAUCUAUUCUUUGCCUGCCCCUGGGGUUCUCUGCAGAUGGUCCCAGUAAUAGAUACUCAGCACUAGACUAACAUAACAGGUCACUACACGGGUGCAGAAUCACUUUACAAAAGAAGACUCUGUUCAACAGAGGAUUGAGCAUCA
B12: chr8:23842656:23842757:-|3pUTR|ENSG00000159167|msi1|FALSE|unique (ssRNA)
RNA: GGGAGUUCUACAGUCCGACGAUCCCCCAAACUUAUGGACACUGCCUUAGCCUCUUGGAAAUCAGGUAGACCAUAUUCUAAGUUAGACUCUUCCCCUCCCUCCCACACUUCCCACCCCCAGGCAAGGCUGACUUCUCUGAAUCACAACAGAGGAUUGAGCAUCA
B13: chr15:99715702:99716401:-|three_prime_utr|ENSG00000183060|control|control|control (ssRNA)
RNA: GGGAGUUCUACAGUCCGACGAUCUGUUGACUACAAACAUUUACCAAAUACAUAAAUCUCUUUUAAAAAAGCCAUUUUAAAUAUAGCAAAGCAGUGUCUUCUUGCACAGCAAAGUGAAGAAAGUUUCUACAGAGAAAUAGAAGUCAACAGAGGAUUGAGCAUCA
B14: chr9:69711526:69711627:-|3pUTR|ENSG00000188647|unk|FALSE|unique (ssRNA)
RNA: GGGAGUUCUACAGUCCGACGAUCGAACUGCUGUAGUCUUCUGCAAUCAGUCUCUGUAUUGGUAUAUCCAGUACUAUCGGGUUUAGGUUCUUUUUAUUUUUCCUUAAAUCUUACUUGUUUCUAGCGUCUUAAGAGUGGUAAUGGCAACAGAGGAUUGAGCAUCA
B15: chr13:35475095:35475222:-|CDS|ENSG00000180660|unk|FALSE|unique (ssRNA)
RNA: GGGAGUUCUACAGUCCGACGAUCGCUGCAACUUAUCUCCUGCCUGCAGUGCCGGCGGUGUCCCCACUACUUUCUACCGAACUUAGAUCUGUUUCAAGGCAAACCUCACUCAGCUCUGGAAAACGCUGCCAAACAAACGUGGCGCAACAGAGGAUUGAGCAUCA
B16: chr21:29063390:29063550:-|CDS|ENSG00000156261|unk|total|mutant (ssRNA)
RNA: GGGAGUUCUACAGUCCGACGAUCGUUUACUUGUUUUGCCAGGGAACAGUGUUGAUAAAGACUGCUGAAGAAUUGAUGAAUUUCCGUAAGGGAGAAGAAAACCUCAUGGAUGCACAAGUCAAAGCUAUUGCUGAUACUGGUGCACAACAGAGGAUUGAGCAUCA
B17: ENSG00000107863:be:win_1201|CDS|ENSG00000107863|bound_else_gene|NA|bound_elsewhere_windowed (ssRNA)
RNA: GGGAGUUCUACAGUCCGACGAUCUUGCACAUAGGUUGUCGGACAAUACAAGAAAGAUUAGAUAGUUUAAGAGCAGCAUCUCAAAGCACGACAGAUUAUAACCAGGUCGUCCCCAACCGCACUACUUUGCAGGGACGACGUCGACAACAGAGGAUUGAGCAUCA
B18: chrX:74591538:74591767:-|CDS|ENSG00000131263|unk|total|mutant (ssRNA)
RNA: GGGAGUUCUACAGUCCGACGAUCUUGCCCUUCCUCCGCCUGGCUCAGUUUUUCCUCUUAAAUGAGGAUGAUGAUGACCAACCCCGAGGACUCACCAAAGAACAGAUUGACAACUUGGCAAUGAGAAGUUUUGGUGAAAAUGAUCAACAGAGGAUUGAGCAUCA
B19: ENSG00000162063:stop:overlap|stop_codon|ENSG00000162063|stop_codon|NA|stop_codon (ssRNA)
RNA: GGGAGUUCUACAGUCCGACGAUCUGCGGCACUGCACCAAGGAGCCCCCGAGCGCUGAGAGCCCACACCCCGUCCCGGCUGUCUAGGUCCCCACUGUGGUGGAUUACAAGGAGGUCCUGCUGACGCUAGUCCCUGUGGAGCUGACAACAGAGGAUUGAGCAUCA
B20: chr12:106239179:106239280:-|CDS|ENSG00000136026|msi1|total|mutant (ssRNA)
RNA: GGGAGUUCUACAGUCCGACGAUCGGACCAAGCCCAGGCCGCCCGUCUGCCUCCUCAGGACUUCCUGGACAGACUUUCUUCUCCCGACAACCUGAAAGCCUCAGUCAGCCAAGUGGAGGCGGACUUGAAAAUGCUCAGGACUGCCAACAGAGGAUUGAGCAUCA
B21: ENSG00000107863:be:win_4451|CDS|ENSG00000107863|bound_else_gene|NA|bound_elsewhere_windowed (ssRNA)
RNA: GGGAGUUCUACAGUCCGACGAUCGCACGACAAAAGAUGAAAAGAUAUCACUAGGAAAAGAGAGCACGCCUUCUGAAGAACCCUCACCACCACACAACUCAAAACACAACAAGUCACCAACUCUCAGCUGUCGCUUUGCCAUCCCAACAGAGGAUUGAGCAUCA
B22: chr7:139716074:139716127:-|CDS|ENSG00000064393|msi1_unk|total|mutant (ssRNA)
RNA: GGGAGUUCUACAGUCCGACGAUCGAAGCAAAACAAGUUCCGCCCCUUGCCCCUCAAAUACAUUCGCCCAGUUCUCCAGCAGGCCGCCACAGCCCUGAUGAAACUCAAAAGCCCCGGUCUUAUCCACGCUGACCUCAAACCAGACAACAGAGGAUUGAGCAUCA

The list shows a part of the results.

This test concerns the target MSI1 full-length (mouse, UniProt Q61474 1-362). Nature of the test: nsRBNS (natural sequence RNA bind-n-seq); RBNS binding buffer (assumed for nsRBNS): 25 mM Tris pH 7.5, 150 mM KCl, 3 mM MgCl2, 0.01% Triton X-100, 500 ug/ml BSA, 20 U/ml SUPERase-In, 4 C; UNK is unkempt and MSI1 is Musashi-1; names of the RNAs are library labels; protein concentration not given here; high values mean tight binding.
Sequence of UniProt Q61474 (Q61474 whole entry): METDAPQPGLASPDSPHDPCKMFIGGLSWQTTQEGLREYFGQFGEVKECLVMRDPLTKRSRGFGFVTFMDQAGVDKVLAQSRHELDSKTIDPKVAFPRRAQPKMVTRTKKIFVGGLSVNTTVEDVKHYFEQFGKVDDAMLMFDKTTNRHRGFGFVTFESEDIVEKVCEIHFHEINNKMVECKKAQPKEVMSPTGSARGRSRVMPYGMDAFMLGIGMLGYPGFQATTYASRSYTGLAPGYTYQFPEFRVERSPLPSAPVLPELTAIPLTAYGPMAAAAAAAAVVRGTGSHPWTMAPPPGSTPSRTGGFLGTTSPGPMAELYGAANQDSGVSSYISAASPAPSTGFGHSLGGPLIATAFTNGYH
With B1, the binding signal is 2.71 enrichment R.

In turn, B2 registered a binding signal of 0.389 enrichment R. As to B3, the binding signal was determined as 0.429 enrichment R.

B4 came in with a binding signal of 0.352 enrichment R. Consider B5, for which the binding signal is 0.589 enrichment R. B6 came in with a binding signal of 20.8 enrichment R.

The molecule B7 yielded a binding signal of 0.348 enrichment R. In turn, B8 displayed a binding signal of 0.513 enrichment R. For the molecule B9, the binding signal came out at 0.711 enrichment R. B10 gave a binding signal of 0.264 enrichment R.

Molecule B11 registered a binding signal of 0.896 enrichment R. As for B12, the figure is 1.03 enrichment R; as for B13, 3.04 enrichment R. B14 returned a binding signal of 3.44 enrichment R. The molecule B15 came in with a binding signal of 0.544 enrichment R.

For B16, the binding signal turned out to be 0.303 enrichment R.

In the case of B17, the binding signal came out at 15.3 enrichment R. B18 came in with a binding signal of 0.286 enrichment R.

Molecule B19 returned a binding signal of 2.85 enrichment R.

Take B20: the binding signal was determined as 0.541 enrichment R. B21 showed a binding signal of 1.17 enrichment R. B22 registered a binding signal of 0.745 enrichment R.

(Values after paper PMC12136788.)
